Over roughly 2,300 sequences, “median log2 fold change of GCK-ALFA target abundance (FLAG IP / Myc IP barcode read proportion)” has its median near 0.095; the lowest 2% begin near -0.47. This is one part of the list.

First the molecules themselves.
B1: LC3A_45_1986 (protein)
chain: MYEATVSLLVPKELAEKALEVAKKAMEELKKKYGPELKVNEERLEKTYEASKNEEDVYLEIDITHPDEQVALDAAVELEDRIRKELGDNVASIISYKKIP
B2: LC3A_59_2023 (protein)
chain: DAELEALIAAARAAKDDPEALARVILEGFELVRDDPEKLKRLKELLVKMLVEEGLLSEELAKELVEDIEEIVKTIADREKALEEILELLRVYLNENEIIE
B3: LC3A_free_0_2122 (protein)
chain: KKTVVEVVVILDESTSKETAEEIYEKLKEKAEELAKEAGAEVESSLSEVDGSYIITIKITLPTDDIDKALELEDKLVETAEEIAKEAGVEATIYSSVYLE
B4: LC3A_free_8_2535 (protein)
chain: NKQEFVNKALELLDKFEEELVKKMKELGKSRLDILDVELLIGETKIEVISNSDKPQEEILEVVKEGLKEIVEYAKTLGEELAEFAKKKAEEVLKELEESL
B5: LC3A_45_1922 (protein)
chain: MYEATLDLLVPKELAEEAYELIKKLLEELEKKRGPNFKVDYETLDASYEASKDEEDVYLEVKIYAPTEEEALDAAIEIEEELSKELGGKVASIISVKKVP
B6: LC3A_45_1921 (protein)
chain: MYKATVDLLVPKELLEKVLETIREKAEEIKKKTNGKVEFDLEGLEKSAEETKDEEEVYLELDIYAEDKQLALDAADEIVDAIEEKTGKKIAAIISVEELP
B7: LC3A_147_436 (protein)
chain: YEAVVDIDILTKNAKEEVLKALEELAEKLRAQGYEVKLEIEVEELENGETFIDATITVKAPTKEEAQAAADYIVDSVDELEEKLKDKILGSIISVEISEA
B8: LC3A_free_8_2549 (protein)
chain: NSQKLTTTVTAKLDEMEERLAEKAKELGLSQLDINELELLIGEAIIDVIELQDKSPEEILEELKEDLEEIIEYAKELGEELAKLAKELSEEILKEAEELL
B9: LC3A_6_2063 (protein)
chain: KLVTATIDMLVKPEYVDRAEEIAEEFKAALTAALEKVAAKTGAKLKSVEYEIDENGEFITVTVTVEADEKAVPAIQKAVDDVVDSFEDKFSASMISYEVE
B10: LC3A_45_1979 (protein)
chain: MYLATVDILVPRELADEAYAAAKAAADELEARYGDKVRVNRAVLDASYAATKDEEDVYLRVEIYAPDEQLALDAADELVDRLEEALGDKVAAIISIEEVP
B11: LC3A_3_1849 (protein)
chain: MEEIIKEILELLKSLGRSEETIKAALELANLLAEKGYKKALEKLLEELKELKDLSDEILLDMFNDILDAVKNEDLNEEEVIKLIEEEARIAKNEQEIIEL
B12: LC3A_3_1552 (protein)
chain: MEKIRAETLQALREAGKSQEVIDAAQATFDALKERGYEEAAKVFAEEARELLDLPDELLLTFFNDVLNYILTNDVSEEELIEYIKEVARTVRNEGEIEEL
B13: LC3A_3_1734 (protein)
chain: MEEILEAAREELEELGFSEETIEAALEVIKELLERGFLEAVEELLRELRRLKHLPDEIILAMLEDILEYVKKNDINEEEAIELIREEARIAENESEIEEL
B14: LC3A_3_1623 (protein)
chain: LEEEIEETLKELKEAGQSEETLEALKETVELLLEKGYEEAAKTLLEEMRELKDLPSEILLAAIEEVKEVVETEDLNEEELIERIKEIFRIARNEGEIIEL
B15: LC3A_free_8_2465 (protein)
chain: ANQKLVDALTAQLDKLEEELEKKAKELGLSELDILELKLEIGSVIAEVISLVDESPEAIVKAFEEGMERVIELAKELSEELAKLAEAGKEEAKKEAEKLL
B16: LC3A_28_642 (protein)
chain: MEIEEQIEKALKEAKEAKEKGEPTVITLTLDGNATEEDVERLIEALEEIAEILESVPGSAIIIDVTGDVPEEHINRLADKAEEIEEKYPNVTVIIALEER
B17: LC3A_free_39_2222 (protein)
chain: SEEEIEKLIKEVAKESGIDYEELKKKIEEIQKIAKLSLEQIKEIVEGILKAVKAGADAKEIVEESLELAKKLVEEGKSPEEIKEEILELIEDYRNLVPLD
B18: LC3A_28_1029 (protein)
chain: MELEKNAKEAIEEAKKLFEKGEEAVVTLNVPKIPKEEAVKKVKETLEELIKLSKKYGNKKVTVVINYDGDQETADAIADVAEEAEKKDPNLTVILALSEE
B19: LC3A_3_1876 (protein)
chain: MEEEIKKTLEELKKAGASEETLKTFKEVAEKLKERGYEEALKTLIEEVKELMGTSDEVLLDFLKEVLEVLETEDLSEEELIERIKELARLALNEAEIEEL
B20: LC3A_28_997 (protein)
chain: SAIDKQIEAALAQAKEAAAAGEPVVITITITSTATQADIDKVMATMEEIAEILKDIKGSAIIVNIEAGVSQELQDKIIDHAEEIEKKYPNITVIIALDED
B21: LC3A_28_671 (protein)
chain: SALEEQLEKALAEAKKLAAKGEPGVIVIEVPGDATEEEIERLIKTLEEIAEILKDVKGSAIVIELDKDLKEEHRQRIIDAAERINEKYPNVTVIIAMEER
B22: LC3A_28_1207 (protein)
chain: SKSLKNAEEALKKAKEAAEKGEEEVIVIKVEGGITQEEVEKVIKYLEEIAKIAAKNPKISIVIDISGGVKQEHQDKIIKKAEELEKKYPNVNIIIALEEE
B23: LC3A_free_2_2171 (protein)
chain: TMYRFEVDTLGTAEEIYDLVLRLLELGARVTVTDANGNTVDLTGKSEEEIKKIAEEFAKTGYVRIVVEVPEEKKEEVEEAIDEAAERIGSAVITLPEAIP
B24: LC3A_147_507 (protein)
chain: YKLTVEIDLIVKNAEEEVKKMIKEIEEELKKKGFEVEVKIETEKLDEDTTYIHITITVKAKTKEEAEEARDLILDRLDEFLEKNKDKILGSLISYEIEEE
B25: LC3A_28_1240 (protein)
chain: SHVEEQIKEAKKEVEKAVKEGKEALVTLTVTGSDTEEDIEKIIEAMEEIAELAKDLPRLSIIIDVDASVPEEHINKLADAAEEIEEKYPNVTVILALEER
B26: LC3A_23_619 (protein)
chain: MYRITIDVDVLVPREEAEAVRARLRATLQAIVDKYADKALASELEFEEEELEDGTVYLRGRLTLVTDLDEAEAQAIADDAVTEISAALPDAVISYSVEKL
B27: LC3A_28_1071 (protein)
chain: MKVEEEIEKAKKEAKEAKKEGKDVVIVVKLEESDTDEEVEKKIEAIKEIGEILKDVKDATIVVEVEGEVAKKYLDKIAEVGEEIEKKYPNVTVIIALDEE
B28: LC3A_28_1059 (protein)
chain: MSIEEELEEALEEAREAVERGEEALIELTIDEDATEEDVELVLETMEEIAELTKDLPRTTIVVDVDHKNKEEVTKLVSEKGDRLEKRYPNVTVIIALSEE
B29: LC3A_132_309 (protein)
chain: GEELAKKLIELAKEALKLVKEDDSKEEEVLKLLKEIRELMKKLAKEASPELAAKTFEEVTDLMIEISRLASKKGWEEVSLEAFALAAEAAQLASDARKKL

The assay has as its target MAP1LC3A, Q9H492. In words: median log2 fold change of GCK-ALFA target abundance (FLAG IP / Myc IP barcode read proportion) (log2 ratio); each designed protein is fused to an ALFA-tag nanobody in HEK293 cells to bring the named protein to FLAG-tagged glucokinase (GCK); Myc marks an untargeted standard; higher = target protein stabilised (more abundant). Particulars: target protein: 3xFLAG-MCP-GCK-ALFA reporter; HEK293 landing pad (RPLP). In outline:
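The readout is target abundance, the per-binder median log2 ratio of FLAG to Myc barcode read proportions. It came from HEK293 landing-pad cells carrying a recombined ALFA-nanobody-fused binder library, induced with 2 μg mL^−1 doxycycline and transfected with a plasmid for a FLAG-tagged target and a Myc-tagged standard. After 48 h, lysates were immunoprecipitated with anti-FLAG and anti-Myc, and circular RNA barcodes were reverse transcribed, amplified and sequenced. Each barcode needed a proportion of at least 10^−7 in both replicates and each binder at least 3 barcodes per replicate, a pseudocount of 10^−6 was added, and the replicates were pooled.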
B1: the “median log2 fold change” value stood at 0.0943. As to B2, the “median log2 fold change” value worked out at 0.203. Turning to B3, the “median log2 fold change” value was -0.221.

With B4, the “median log2 fold change” value is -0.0681.

On to B5, for which the “median log2 fold change” value is -0.405. With B6, the “median log2 fold change” value is 0.0987. As to B7, the “median log2 fold change” value is 0.233. As for B8, the “median log2 fold change” value was -0.236. B9: the “median log2 fold change” value was 0.00737. On to B10, for which the “median log2 fold change” value was -0.00345.

On to B11, for which the “median log2 fold change” value came to 0.217.

Turning to B12, the “median log2 fold change” value is 0.25. Consider B13, for which the “median log2 fold change” value was -0.0692. The same measure for B14: 0.184; for B15: -0.0403. Consider B16, for which the “median log2 fold change” value was -0.133. For B17, the “median log2 fold change” value stood at 0.0698. Turning to B18, the “median log2 fold change” value turned out to be 0.157. Under B19 stands 0.26; under B20, -0.0479. For B21, the “median log2 fold change” value was 0.0757. With B22, the “median log2 fold change” value worked out at 0.141. Turning to B23, the “median log2 fold change” value was 0.0987. For the molecule B24, the “median log2 fold change” value was -0.129. In the case of B25, the “median log2 fold change” value is -0.246.

Consider B26, for which the “median log2 fold change” value came out at 0.151. The same measure for B27: -0.029; for B28: -0.148; for B29: 0.306.

For the origin of these results see the supplement of paper PMC12632987.
